# At least one structure is not confirmed: it was looked up by name or label, or the drawing left a doubt. *1 amine or outer side, *2 acyl side, *3 side chain or, on linkers, in order; H or OH if unused. Where a SMILES comes first, the peptide text is derived from it. Side-chain parts run from the residue outwards. [ ]: non-standard residue; d: D form. The star is where a group is joined. C20 diacid = O=C(O)CCCCCCCCCCCCCCCCCCC(=O)*; γGlu = O=C(O)[C@H](CCC(=O)[*:2])N[*:1]; αMeL = CC(C)C[C@](C)(N)C(=O)O; αMeK = C[C@](N)(CCCCN)C(=O)O; AEEA = NCCOCCOCC(=O)O; Aib = CC(C)(N)C(=O)O
# Key:
# male Wistar rats = experiment: Intravenous glucose tolerance test (ivGTT), insulin secretion in male Wistar rats; type: in vivo, rat; design: unit not given here; details: mean ± SEM, n=6
# Procedure: An intravenous glucose tolerance test (ivGTT) in rats (male Wistar) is used to estimate insulinotropic potency of the exemplary analogs. The GLP-1 RA semaglutide is used as a positive control. Rats with surgically implanted cannulas in the jugular vein and carotid artery (Envigo, Indianapolis, Ind.; 280-320 grams) are housed one per cage in polycarbonate cages with filter tops. Rats are maintained on a 12-hour light-dark cycle at 21° C. and receive 2014 Teklad Global Diet (Envigo, Indianapolis) and deionized water ad libitum. Rats are randomized by body weight and dosed 1.5 mL/kg subcutaneous (sc) with exemplary analogs 16 hours prior to glucose administration, and then fasted. Stock concentrations of […] of the exemplary analogs are diluted in Tris buffer pH 8.0 to 6.667 nMol/mL, 2.0 nMol/mL, 0.667 nMol/mL, 0.2 nMol/mL; doses tested are vehicle, 1, 3 and 10 nMol/kg, and, in some cases 0.3 and 30 nMol/kg. Semaglutide is used as positive control, and its insulinotropic effects are measured both in its own test (vehicle and 1, 3, 10 and 30 nMol/kg doses) and in connection with each run of the exemplary analogs (10 nMol/kg dose).
# A time 0 blood sample is collected into EDTA tubes after which glucose is administered ([…], 5 mL/kg). Blood samples are collected for glucose and insulin levels at time 2, 4, 6, 10, 20, and 30 minutes post intravenous administration of glucose. Plasma insulin is determined using an electrochemiluminescence assay (Meso Scale, Gaithersburg, Md.).
# Statistical analysis is performed using JMP with a one-way ANOVA followed by Dunnett's comparison to the vehicle control.
# [1] = test system: diet-induced obese (DIO) C57BL/6 mice; experiment: Diet-induced obese C57BL/6 mice, 15-day study; type: in vivo, mouse; details: for Body weight Δ from vehicle: day 15, DIO mice; for Body weight % change: days 1 to 15, DIO mice; for ALT / Cholesterol / Glucose / Liver Triglycerides / Plasma Insulin: 3 nmol/kg, after fifteen days, DIO mice, mean ± SEM
# Procedure: The exemplary incretin analogs as described herein are proposed as a treatment not only for diabetes but also for metabolic syndrome, which is a collection of co-morbidities (dyslipidemia, obesity, hepatic steatosis, etc.) associated with insulin resistance and diabetes. To investigate the effects of the exemplary analogs on parameters such as weight loss, metabolism, body composition and hepatic steatosis, they were dosed to C57BL/6 diet-induced obese (DIO) mice. These animals, although not diabetic, display insulin resistance, dyslipidemia and hepatic steatosis, all characteristics of metabolic syndrome, after being placed on a high-fat diet for 18 weeks.
# Specifically, DIO male C57BL/6 mice 24 to 25 weeks old maintained on a calorie-rich diet are used in the following studies. Mice are individually housed in a temperature-controlled (24° C.) facility with 12-hour light/dark cycle (lights on 22:00) and free access to food (TD95217) and water. After a minimum of 2 weeks acclimation to the facility, the mice are randomized according to their body weight, so each experimental group of animals would have similar body weight. The body weights range from 40 to 51 g.
# All groups contain 5-6 mice. Vehicle, exemplary analogs dissolved in vehicle (40 mM Tris-HCl at pH 8.0), and semaglutide dissolved in vehicle are administered by subcutaneous (SC) injection (10 mL/kg) to ad libitum fed DIO mice 30 to 90 minutes prior to the onset of the dark cycle every 3 days for 15 days. SC injections are made on Day 1, 4, 7, 10 and 13. Body weight and food intake are measured daily throughout the study.
# Absolute changes in body weight are calculated by subtracting the body weight of the same animal prior to the first injection of vehicle, analog or semaglutide. On Days 0 and 15, total fat mass is measured by nuclear magnetic resonance (NMR) using an Echo Medical System Instrument (Houston, Tex.). On Day 15, animals are sacrificed prior to dark photoperiod, and the livers are removed and frozen. Liver triglycerides, determined from homogenates of livers collected at sacrifice, and plasma cholesterol are measured on a Hitachi Modular P clinical analyzer.
# Data are presented as mean±SEM of 5-6 animals per group in Tables 7 and 8 below. Statistical analysis is performed using repeated measures ANOVA, followed by Dunnett's method for multiple comparisons. Significant differences are identified at p<0.05.
# [2] = 1 nmol/kg sc 16 hours before glucose
# [3] = 3 nmol/kg sc 16 hours before glucose
# [4] = 10 nmol/kg sc 16 hours before glucose
SMILES,AUC30min of Insulin after a Bolus IV Glucose (male Wistar rats; [2]),AUC30min of Insulin after a Bolus IV Glucose (male Wistar rats; [3]),AUC30min of Insulin after a Bolus IV Glucose (male Wistar rats; [4]),Body weight Δ from vehicle ([1]; 3 nmol/kg SC every 3 days) [g],Body weight % change ([1]; 3 nmol/kg SC every 3 days) [%],ALT [1] [IU/L],Cholesterol [1] [mg/dL],Glucose [1] [mg/dL],Liver Triglycerides [1] [mg/g tissue],Plasma Insulin [1] [pg/mL],Body weight Δ from vehicle ([1]; 10 nmol/kg SC every 3 days) [g],Body weight % change ([1]; 10 nmol/kg SC every 3 days) [%],Body weight Δ from vehicle ([1]; 30 nmol/kg SC every 3 days) [g],Body weight % change ([1]; 30 nmol/kg SC every 3 days) [%]
CC[C@H](C)[C@H](NC(=O)[C@H](Cc1ccccc1)NC(=O)[C@H](C)NC(=O)[C@](C)(CCCCN)NC(=O)[C@H](CCC(N)=O)NC(=O)[C@H](C)NC(=O)[C@H](CCCCNC(=O)COCCOCCNC(=O)COCCOCCNC(=O)CC[C@H](NC(=O)CCCCCCCCCCCCCCCCCCC(=O)O)C(=O)O)NC(=O)[C@H](CCCCN)NC(=O)[C@H](CC(=O)O)NC(=O)[C@H](CC(C)C)NC(=O)[C@](C)(CC(C)C)NC(=O)[C@@H](NC(=O)[C@H](CO)NC(=O)[C@H](Cc1ccc(O)cc1)NC(=O)[C@H](CC(=O)O)NC(=O)[C@H](CO)NC(=O)[C@@H](NC(=O)[C@H](Cc1ccccc1)NC(=O)[C@@H](NC(=O)CNC(=O)[C@H](CCC(N)=O)NC(=O)C(C)(C)NC(=O)[C@@H](N)Cc1ccc(O)cc1)[C@@H](C)O)[C@@H](C)O)[C@@H](C)CC)C(=O)N[C@@H](CCC(=O)O)C(=O)N[C@@H](Cc1ccc(O)cc1)C(=O)N[C@@H](CC(C)C)C(=O)N[C@@H](CC(C)C)C(=O)N[C@@H](C)C(=O)NC(C)(C)C(=O)NCC(=O)N1CCC[C@H]1C(=O)N[C@@H](CO)C(=O)N[C@@H](CO)C(=O)NCC(=O)N[C@@H](C)C(=O)N1CCC[C@H]1C(=O)N1CCC[C@H]1C(=O)N1CCC[C@H]1C(=O)N[C@@H](CO)C(N)=O [Example 1] (H-Y[Aib]QGTFTSDYSI[αMeL]LDKK([AEEA-AEEA-γGlu-C20 diacid])AQ[αMeK]AFIEYLLA[Aib]GPSSGAPPPS-NH2; N-terminus assumed),60.1 ± 10.3,53.8 ± 5.1,71.5 ± 6.1,-5.42 ± 0.54,−10.04 ± 1.14,118.0 ± 20.73,191.2 ± 7.55,107.4 ± 4.38,150.6 ± 37.0,3439 ± 936.4,-9.26 ± 0.36,−20.20 ± 1.51,-21.36 ± 1.08,−44.82 ± 1.54
CC[C@H](C)[C@H](NC(=O)[C@H](Cc1ccccc1)NC(=O)[C@H](C)NC(=O)[C@](C)(CCCCN)NC(=O)[C@H](CCC(N)=O)NC(=O)[C@H](C)NC(=O)[C@H](CCCCNC(=O)COCCOCCNC(=O)COCCOCCNC(=O)CC[C@H](NC(=O)CCCCCCCCCCCCCCCCCCC(=O)O)C(=O)O)NC(=O)[C@H](CCCCN)NC(=O)[C@H](CC(=O)O)NC(=O)[C@H](CC(C)C)NC(=O)[C@](C)(CC(C)C)NC(=O)[C@@H](NC(=O)[C@H](CO)NC(=O)[C@H](Cc1ccc(O)cc1)NC(=O)[C@H](CC(=O)O)NC(=O)[C@H](CO)NC(=O)[C@@H](NC(=O)[C@H](Cc1ccccc1)NC(=O)[C@@H](NC(=O)CNC(=O)[C@H](CCC(N)=O)NC(=O)C(C)(C)NC(=O)[C@@H](N)Cc1ccc(O)cc1)[C@@H](C)O)[C@@H](C)O)[C@@H](C)CC)C(=O)N[C@@H](CCC(=O)O)C(=O)N[C@@H](Cc1ccc(O)cc1)C(=O)N[C@@H](CC(C)C)C(=O)N[C@@H](CC(C)C)C(=O)N[C@@H](CCC(=O)O)C(=O)NCC(=O)NCC(=O)N1CCC[C@H]1C(=O)N[C@@H](CO)C(=O)N[C@@H](CO)C(=O)NCC(=O)N[C@@H](C)C(=O)N1CCC[C@H]1C(=O)N1CCC[C@H]1C(=O)N1CCC[C@H]1C(=O)N[C@@H](CO)C(N)=O [Example 3],34.4 ± 2.9,47.5 ± 4.0,51.6 ± 5.4,–,–,–,–,–,–,–,-10.14 ± 0.72,−21.18 ± 1.98,–,–
CC[C@H](C)[C@H](NC(=O)[C@H](Cc1ccccc1)NC(=O)[C@H](C)NC(=O)C(C)(C)NC(=O)[C@H](CCC(N)=O)NC(=O)[C@H](C)NC(=O)[C@H](CCCCNC(=O)COCCOCCNC(=O)CC[C@H](NC(=O)CCCCCCCCCCCCCCCCCCC(=O)O)C(=O)O)NC(=O)[C@H](CCCCN)NC(=O)[C@H](CC(=O)O)NC(=O)[C@H](CC(C)C)NC(=O)[C@H](CC(C)C)NC(=O)[C@@H](NC(=O)[C@H](CO)NC(=O)[C@H](Cc1ccc(O)cc1)NC(=O)[C@H](CC(=O)O)NC(=O)[C@H](CO)NC(=O)[C@@H](NC(=O)[C@H](Cc1ccccc1)NC(=O)[C@@H](NC(=O)CNC(=O)[C@H](CCC(N)=O)NC(=O)C(C)(C)NC(=O)[C@@H](N)Cc1ccc(O)cc1)[C@@H](C)O)[C@@H](C)O)[C@@H](C)CC)C(=O)N[C@@H](CCC(=O)O)C(=O)N[C@@H](Cc1ccc(O)cc1)C(=O)N[C@@H](CC(C)C)C(=O)N[C@@H](CC(C)C)C(=O)N[C@@H](C)C(=O)NC(C)(C)C(=O)NCC(=O)N1CCC[C@H]1C(=O)N[C@@H](CO)C(=O)N[C@@H](CO)C(=O)NCC(=O)N[C@@H](C)C(=O)N1CCC[C@H]1C(=O)N1CCC[C@H]1C(=O)N1CCC[C@H]1C(=O)N[C@@H](CO)C(N)=O [Example 4] (H-Y[Aib]QGTFTSDYSILLDKK([AEEA-γGlu-C20 diacid])AQ[Aib]AFIEYLLA[Aib]GPSSGAPPPS-NH2),27.4 ± 3.0,52.9 ± 3.0,70.8 ± 8.4,–,–,–,–,–,–,–,-11.58 ± 0.85,−23.64 ± 1.70,-19.98 ± 1.63,−43.88 ± 3.71
CC[C@H](C)[C@H](NC(=O)[C@H](Cc1ccccc1)NC(=O)[C@H](C)NC(=O)C(C)(C)NC(=O)[C@H](CCC(N)=O)NC(=O)[C@H](C)NC(=O)[C@H](CCCCNC(=O)COCCOCCNC(=O)COCCOCCNC(=O)CC[C@H](NC(=O)CCCCCCCCCCCCCCCCCCC(=O)O)C(=O)O)NC(=O)[C@H](CCCCN)NC(=O)[C@H](CC(=O)O)NC(=O)[C@H](CC(C)C)NC(=O)[C@](C)(CC(C)C)NC(=O)[C@@H](NC(=O)[C@H](CO)NC(=O)[C@H](Cc1ccc(O)cc1)NC(=O)[C@H](CC(=O)O)NC(=O)[C@H](CO)NC(=O)[C@@H](NC(=O)[C@H](Cc1ccccc1)NC(=O)[C@@H](NC(=O)CNC(=O)[C@H](CCC(N)=O)NC(=O)C(C)(C)NC(=O)[C@@H](N)Cc1ccc(O)cc1)[C@@H](C)O)[C@@H](C)O)[C@@H](C)CC)C(=O)N[C@@H](CCC(=O)O)C(=O)N[C@@H](Cc1ccc(O)cc1)C(=O)N[C@@H](CC(C)C)C(=O)N[C@@H](CC(C)C)C(=O)N[C@@H](CCC(=O)O)C(=O)NCC(=O)NCC(=O)N1CCC[C@H]1C(=O)N[C@@H](CO)C(=O)N[C@@H](CO)C(=O)NCC(=O)N[C@@H](C)C(=O)N1CCC[C@H]1C(=O)N1CCC[C@H]1C(=O)N1CCC[C@H]1C(=O)N[C@@H](CO)C(N)=O [Example 11],43.0 ± 6.8,59.2 ± 6.3,62.0 ± 4.6,-7.22 ± 0.38,−16.58 ± 0.88,56.2 ± 4.51,178.2 ± 7.95,114.7 ± 3.051,93.8 ± 21.8,1569 ± 318.3,-11.82 ± 1.72,−26.83 ± 4.04,-16.48 ± 1.98,−37.35 ± 3.91

# — patent US11542313B2, “Incretin analogs and uses thereof” (Eli Lilly and Company, priority 2017, dated 2023)
